Data as given in ChEMBL document CHEMBL5303300, “EUbOPEN Chemogenomics Library - Multiplex” (2023).
Not every entry of the source has a single result; some have several. This list holds those alone. The source may hold further records. The records of an entry repeat one measurement across runs, samples, wells, individuals or studies.

System: U2OS
Assay: Multiplex assay against U2OS
Format: toxicity, cell-based
Conditions: human, number of replicates 2
Method in brief: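 Hoechst33342, BioTracker Green Microtubule Cytoskeleton Dye, MitoTracker Red and Annexin V Alexa Fluor 680 were added to live cells at seeding, and imaging on a CQ1 microscope at 37°C and 5% CO2 followed compound addition. Gating by CellPathfinder machine learning separated cells into Hoechst high-intensity objects or normal cells, then normal cells into healthy, pyknosed or fragmented nuclei, then pyknosed cells into mitotic or apoptotic. Per cents of healthy-nucleus cells are reported for the tubulin, mitochondrial-mass and membrane-permeability phenotypes.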

[1] = 12 h, 1 µM, compound concentration 1 uM
[2] = 12 h, 10 µM, compound concentration 10 uM
[3] = 24 h, 1 µM, compound concentration 1 uM
[4] = 24 h, 10 µM, compound concentration 10 uM
[5] = 48 h, 1 µM, compound concentration 1 uM
[6] = 48 h, 10 µM, compound concentration 10 uM

| SMILES | Population Apoptotic (%) [1] | Population Fragmented Nuclei (%) [1] | Population Membrane Permeable-Phenotype (%) [1] | Population Mitotic Cells (%) [1] | Total Cell Count [1] | Population Fragmented Nuclei (%) [2] | Population Membrane Permeable-Phenotype (%) [2] | Total Cell Count [2] | Population Fragmented Nuclei (%) [3] | Total Cell Count [3] | Population Membrane Permeable-Phenotype (%) [4] | Total Cell Count [4] | Population Fragmented Nuclei (%) [5] | Total Cell Count [5] | Population Fragmented Nuclei (%) [6] | Total Cell Count [6] | also measured |
| --- | --- | --- | --- | --- | --- | --- | --- | --- | --- | --- | --- | --- | --- | --- | --- | --- | --- |
| OC(c1ccc(-c2ccc(CN3CCN(Cc4ccncc4)CC3)cc2)c(F)c1)(C(F)(F)F)C(F)(F)F | 0% and 71% | 71% and 4% | 100% and 2% | 100% and 28% | 7 and 223 | 5% and 32% | 1% and 21% | 160 and 28 | 80% and 4% | 5 and 302 | 2% and 20% | 219 and 37 | 100% and 3% | 7 and 603 | 4% and 19% | 371 and 52 | Population Healthy Nuclei (%) [1]: 14% and 86%; Population Tubulin-Different-Phenotype (%) [2]: 53% and 14%; Population Apoptotic (%) [3]: 0% and 57%; Population Healthy Nuclei (%) [3]: 0% and 86%; Population Tubulin-Different-Phenotype (%) [3]: 0% and 87%; Population Fragmented Nuclei (%) [4]: 5% and 27%; Population Apoptotic (%) [5]: 0% and 72%; Population Healthy Nuclei (%) [5]: 0% and 90%; Population Mitotic Cells (%) [5]: 0% and 27%; Population Tubulin-Different-Phenotype (%) [5]: 0% and 92%; Population Tubulin-Different-Phenotype (%) [6]: 67% and 20% |
| COc1cc(Nc2cnc(C#N)c(O[C@H](C)CN(C)C)n2)ncc1-c1cnn(C)c1 | – | 26% and 4% | 12% and 1% | 0% and 40% | 38 and 227 | 39% and 9% | 31% and 5% | 41 and 188 | 21% and 5% | 55 and 290 | 20% and 3% | 29 and 193 | 15% and 3% | 63 and 528 | – | 30 and 211 | Population Mitotic Cells (%) [2]: 11% and 43% |
| COc1cc(Br)c(S(=O)(=O)Nc2ccc(C(F)(F)F)c(O[C@@H]3CCN(C)C3)c2)cc1OC | 0% and 53% | – | – | – | 30 and 202 | 16% and 3% | – | 31 and 179 | – | 42 and 263 | – | 36 and 245 | 15% and 3% | 89 and 524 | – | 64 and 521 | Population Apoptotic (%) [4]: 16% and 51% |
| CN(C)[C@H]1CC[C@H](Nc2ncc3ncnc(Nc4ccc(F)c(Cl)c4)c3n2)CC1 | 0% and 35% | – | – | – | 49 and 283 | – | – | – | 46% and 11% | 66 and 349 | – | 172 and 597 | 54% and 14% | 71 and 625 | – | 291 and 956 | – |
| Cc1ccc(C(=O)Nc2cc(N3CCN(C)CC3)cc(C(F)(F)F)c2)cc1-n1cc(-c2cnn(C)c2C)nn1.Cl | – | 21% and 2% | – | – | 47 and 157 | 6% and 29% | – | 175 and 31 | 17% and 2% | – | – | 29 and 209 | – | 105 and 324 | 10% and 35% | 204 and 34 | Population Mitochondria Different-Phenotype (%) [1]: 6% and 25%; Population Mitochondria Different-Phenotype (%) [3]: 2% and 30%; Population Mitochondria Different-Phenotype (%) [5]: 5% and 23% |
| COCCN1CCN(CCn2ccc(Nc3ncc4c(n3)-c3c(nn(C)c3-c3ccccc3)C[C@H]4C)n2)CC1 | – | 4% and 19% | – | – | 196 and 51 | – | – | 49 and 288 | – | 255 and 70 | – | 63 and 359 | – | 80 and 504 | – | 55 and 473 | – |
